{"source": "PubChem BioAssay AID485281", "about": "(National Center for Advancing Translational Sciences (NCATS), 2010)", "note": "About 260 (0.074%) of roughly 350,000 compounds were called active. Inconclusive means that the source gave no clear call. Such entries were picked first, then a sample of the others. Calls come from the whole dose curve; as a rule, active = well fitted inhibition curve with a large enough effect; inconclusive = small, poorly fitted or top-dose-only effect; inactive = no such curve, though single readings can be large or run the other way. Where the call is inconclusive, the potency comes from a doubtful curve fit. Potency is the fitted concentration of half-maximal effect; tags give direction and shape of the fitted curve.", "data": [{"molecular_target": "Ferritin light chain (Equus caballus) (UniProt P02791)", "sequence (P02791 whole entry, looked up)": "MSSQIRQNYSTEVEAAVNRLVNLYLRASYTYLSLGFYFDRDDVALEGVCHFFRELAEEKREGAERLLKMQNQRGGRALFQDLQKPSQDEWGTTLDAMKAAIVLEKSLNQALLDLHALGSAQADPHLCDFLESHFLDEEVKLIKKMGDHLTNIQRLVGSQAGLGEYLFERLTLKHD", "test": "qHTS Assay for Identification of Novel General Anesthetics; note: nearly all actives have a fitted effect of over 20% in size", "settings": "apoferritin/1-aminoanthracene competitive binding, fluorescence; series mostly up to 77.5 µM", "outline": "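10 uM apoferritin + 50% sat. 1-AMA, PBS; cpd 10 min RT; Ex380/Em535 endpoint; normalized to free probe vs complex; 4-param Hill fit; propofol titration as pos. ctrl.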", "values": [{"smiles": "Cc1cccc(N2CCN(C(=O)Cc3cn(C)c4ccccc34)CC2)c1C", "Potency": "inconclusive: 12.6 µM [inhibitor, partial curve]"}, {"smiles": "CCn1nccc1C(=O)Nc1ccc(Cl)c(Cl)c1", "Potency": "inconclusive: 22.4 µM [inhibitor, partial curve]"}, {"smiles": "COc1cc(CNc2ccc3[nH]c(=O)[nH]c3c2)cc(Br)c1OCC(=O)NC(C)(C)C", "Potency": "inconclusive: 44.7 µM [inhibitor, single point]"}, {"smiles": "CCOC(=O)/C=C/C(=O)Nc1ccc(S(=O)(=O)N(C)c2ccccc2)cc1", "Potency": "inconclusive: 31.6 µM [inhibitor, single point]"}, {"smiles": "COc1cc(C(=O)Nc2cnc(NC(=O)C(C)C)cc2C)cc(OC)c1OC", "Potency": "inconclusive: 25.1 µM [inhibitor, partial curve]"}, {"smiles": "CCOc1ccc(NC(=O)NC(C)c2c(-n3cccc3)sc(C)c2C)cc1", "note": "(configuration not stated)", "Potency": "inactive"}, {"smiles": "COc1ccc(-c2nc(-c3ccc(NC(=O)c4ccc(Br)o4)cc3)no2)cc1OC", "Potency": "inactive"}, {"smiles": "Cc1ccc(C(=O)Sc2cccccc2=O)cc1", "Potency": "inactive"}, {"smiles": "CCOC(=O)CSc1nc2sc3c(c2c(=O)n1Cc1ccccc1)CC(C)CC3", "note": "(configuration not stated)", "Potency": "inactive"}, {"smiles": "Cc1ccc(-n2ncc3c(NCCc4ccccc4)ncnc32)cc1C", "Potency": "inactive"}, {"smiles": "O=C(Cn1nc(N2CCN(c3ccccc3)CC2)ccc1=O)NCc1cccc(Cl)c1", "Potency": "inconclusive: 10 µM [inhibitor, partial curve]"}, {"smiles": "CCc1c(C(C)S(=O)(=O)c2ccc(C)cc2)[nH]c(=O)n1-c1ccc(C)cc1", "note": "(configuration not stated)", "Potency": "inconclusive: 35.5 µM [inhibitor, single point]"}, {"smiles": "CC1CCN(c2ccc(NC(=S)NC(=O)c3ccco3)cc2)CC1", "Potency": "inconclusive: 28.2 µM [inhibitor, partial curve]"}, {"smiles": "COc1cc(CNCCNC(=O)c2nonc2N)ccc1OCc1ccc(Cl)nc1", "Potency": "inconclusive: 35.5 µM [inhibitor, partial curve]"}, {"smiles": "CSc1ccccc1OCc1cc(C(=O)NCCC2CCCCO2)no1", "note": "(configuration not stated)", "Potency": "inconclusive: 7.94 µM [inhibitor, partial curve]"}, {"smiles": "Cc1nn(C(C)C(=O)NCCCc2ccccc2)c(=O)c2cc3occc3n12", "note": "(configuration not stated)", "Potency": "inconclusive: 50.1 µM [inhibitor, partial curve]"}, {"smiles": "Cn1cccc1C(=O)c1cccc([N+](=O)[O-])c1", "Potency": "inconclusive: 28.2 µM [inhibitor, single point]"}, {"smiles": "C=CCn1c(O)c(N=NC(=O)CNC(=O)/C=C/c2ccc(OC)cc2)c2ccccc21", "Potency": "inconclusive: 39.8 µM [inhibitor, single point]"}, {"smiles": "CSCC[C@H](NC(=O)[C@H](CC(C)C)NC(=O)CNC(=O)[C@H](Cc1ccccc1)NC(=O)[C@H](Cc1ccccc1)NC(=O)[C@H](CCC(N)=O)NC(=O)[C@H](CCC(N)=O)NC(=O)[C@@H]1CCCN1C(=O)[C@H](CCCCN)NC(=O)[C@@H]1CCCN1C(=O)[C@@H](N)CCCN=C(N)N)C(N)=O", "Potency": "inactive"}, {"smiles": "COc1cc(-c2nnc(SCC(=O)/C(C#N)=C(\\C)N)o2)cc(OC)c1OC", "Potency": "inactive"}, {"smiles": "COc1ccccc1/C=C/C=N/NC(=O)CCn1nnc2ccccc21", "Potency": "inconclusive: 50.1 µM [inhibitor, single point]"}, {"smiles": "Cc1ccc2c(c1)cc(CN(Cc1ccc3c(c1)OCO3)C(=O)c1cnccn1)c1nnnn12", "Potency": "inconclusive: 14.1 µM [inhibitor, partial curve]"}, {"smiles": "CS(=O)(=O)N1CCN(c2ccc(NC(=S)NC(=O)c3cccs3)cc2)CC1", "Potency": "inactive"}, {"smiles": "COc1ccc(C2=C(Nc3ccc(F)cc3)c3ccccc3C2=O)cc1", "Potency": "inconclusive: 31.6 µM [inhibitor, partial curve]"}, {"smiles": "COC(=O)C1=C(C)N(Cc2ccco2)C(=O)N[C@H]1c1cccc(C(F)(F)F)c1", "Potency": "inconclusive: 50.1 µM [inhibitor, single point]"}, {"smiles": "O=C(COc1ccccc1[N+](=O)[O-])NNC(=O)Nc1cccc2ccccc12", "Potency": "inconclusive: 17.8 µM [inhibitor, partial curve]"}, {"smiles": "COCCn1c(=O)[nH]c2cc(C(=O)NCC3CCCO3)ccc2c1=O", "note": "(configuration not stated)", "Potency": "inactive"}, {"smiles": "Cc1cccc(NC(=O)N2CCCCCC2)c1C", "Potency": "inconclusive: 50.1 µM [inhibitor, single point]"}, {"smiles": "CN(C)S(=O)(=O)c1ccc(NC(=O)c2cc3ccccc3o2)cc1", "Potency": "inconclusive: 39.8 µM [inhibitor, partial curve]"}, {"smiles": "Cc1ccccc1OC(C)C(=O)Nc1ccc2c(c1)OCO2", "note": "(configuration not stated)", "Potency": "inconclusive: 50.1 µM [inhibitor, single point]"}, {"smiles": "COc1ccc2c(c1)OC/C(=C/c1ccc(OC)c(OC)c1)C2=O", "Potency": "inconclusive: 22.4 µM [inhibitor, partial curve]"}, {"smiles": "CCOC(=O)c1c(NC(=O)c2cc(=O)c3c(C)cc(C)cc3o2)sc2c1CCC2", "Potency": "inactive"}, {"smiles": "O=[N+]([O-])c1ccccc1Oc1ncccc1[N+](=O)[O-]", "Potency": "inconclusive: 28.2 µM [inhibitor, single point]"}, {"smiles": "CC(NC(=O)COC(=O)c1cc(NS(=O)(=O)c2ccc(Cl)c([N+](=O)[O-])c2)ccc1O)C1CC2CCC1C2", "note": "(configuration not stated)", "Potency": "inconclusive: 7.94 µM [inhibitor, partial curve]"}, {"smiles": "COC(=O)c1ccc(COc2ccc(/C=N/N3CCN(C)CC3)cc2)cc1", "Potency": "inactive"}, {"smiles": "Clc1ccc(CCNC(c2cccc(Cl)c2)c2nnc(-c3ccccc3)o2)cc1", "note": "(configuration not stated)", "Potency": "inactive"}, {"smiles": "COc1ccc(/C=C/C(=O)OCC(=O)NCCC2=CCCCC2)cc1OC", "Potency": "inconclusive: 22.4 µM [inhibitor, partial curve]"}, {"smiles": "COc1ccc(C2CC(=O)c3cnc4c(-c5ccccc5)c(C)nn4c3C2)c(OC)c1", "note": "(configuration not stated)", "Potency": "inactive"}, {"smiles": "COc1ccccc1CNC(=O)CCCn1c(=O)c2cccn2c2ccccc21", "Potency": "inconclusive: 11.2 µM [inhibitor, partial curve]"}, {"smiles": "O=C(O)c1ccccc1SC1CC(=O)N(C2CCCCC2)C1=O", "note": "(configuration not stated)", "Potency": "inconclusive: 39.8 µM [inhibitor, single point]"}, {"smiles": "COc1ccc(-c2nc(SCC(=O)Nc3cccc(C(C)=O)c3)n[nH]2)cc1", "Potency": "inconclusive: 8.91 µM [inhibitor, partial curve]"}, {"smiles": "Cc1ccc(SCCC(=O)OCC(=O)NCC2CCCCC2)cc1", "Potency": "inconclusive: 25.1 µM [inhibitor, partial curve]"}]}]}
